Assay results from the supplement of paper PMC4967469.
IC50 is the fitted dose that halves viability relative to control wells, and lower means more sensitive; a limit (>, <) means that the fit lies beyond the doses tested. AUC, from the same fit, is the share of area under the viability curve across the 256-fold dose range; values near 1 show little effect. Where the top dose is marked as inferred, it was calculated from the reported fits.

Compound: O=C1NC(=NCc2cccs2)S/C1=C\c1ccc2ncccc2c1 [RO-3306]
Experiment: Viability of human cancer cell lines after 72 h of drug (GDSC screen)
Conditions: top dose 5 µM; top dose inferred
Method: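 Human cancer cell lines in 384-well plates, medium with 10% serum, drug for 72 h over a 256-fold dose range (nine 2-fold or five 4-fold steps up to the top dose). Adherent lines were fixed and stained with the nucleic acid dye Syto60, suspension lines read with resazurin; signal relative to control wells, capped at 0 and 100%. One two-parameter sigmoid per drug and line, fitted in a mixed model over all curves with the slope shared within a line.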

Cell Line | AUC | IC50
A3-KAW (B-cell lymphoma, suspension) | 0.992 | > 5 µM
A4-Fuk (B-cell lymphoma, suspension) | 0.945 | > 5 µM
A101D (melanoma, adherent) | 0.939 | > 5 µM
A172 (glioma, adherent) | 0.847 | 3.48 µM
A253 (head and neck, adherent) | 0.974 | > 5 µM
A375 (melanoma, adherent) | 0.939 | > 5 µM
A388 (skin, adherent) | 0.925 | > 5 µM
A427 (non-small cell lung carcinoma, adherent) | 0.986 | > 5 µM
A431 (skin, adherent) | 0.929 | > 5 µM
A498 (kidney, adherent) | 0.938 | > 5 µM
A549 (lung adenocarcinoma, adherent) | 0.911 | > 5 µM
A673 (rhabdomyosarcoma, adherent) | 0.989 | > 5 µM
A704 (kidney, adherent) | 0.928 | > 5 µM
A2780 (ovary, semi-adherent) | 0.984 | > 5 µM
AGS (stomach, adherent) | 0.786 | 1.93 µM
ALL-PO (lymphoblastic leukaemia, suspension) | 0.8 | 2.58 µM
ALL-SIL (T-cell leukaemia, suspension) | 0.989 | > 5 µM
AM-38 (glioma, semi-adherent) | 0.988 | > 5 µM
AMO-1 (haematopoietic neoplasm, suspension) | 0.988 | > 5 µM
ARH-77 (myeloma, suspension) | 0.98 | > 5 µM
ASH-3 (thyroid, adherent) | 0.901 | > 5 µM
ATN-1 (T-cell lymphoblastic leukaemia, suspension) | 0.949 | > 5 µM
AU565 (breast, adherent) | 0.778 | 2.26 µM
AsPC-1 (pancreas, adherent) | 0.888 | > 5 µM
BALL-1 (B-cell leukaemia, suspension) | 0.997 | > 5 µM
BB30-HNC (head and neck, adherent) | 0.81 | 2.56 µM

Cell Line | AUC | IC50
BB49-HNC (head and neck, adherent) | 0.975 | > 5 µM
BC-1 (B-cell lymphoma, suspension) | 0.99 | > 5 µM
BCPAP (thyroid, adherent) | 0.979 | > 5 µM
BE2-M17 (neuroblastoma, adherent) | 0.97 | > 5 µM
BE-13 (lymphoblastic leukaemia, suspension) | 0.978 | > 5 µM
BFTC-905 (bladder, adherent) | 0.924 | > 5 µM
BHT-101 (thyroid, adherent) | 0.94 | > 5 µM
BHY (head and neck, adherent) | 0.951 | > 5 µM
BICR10 (head and neck, adherent) | 0.953 | > 5 µM
BICR22 (head and neck, adherent) | 0.846 | 4.52 µM
BICR78 (head and neck, adherent) | 0.887 | > 5 µM
BL-41 (Burkitt lymphoma, suspension) | 0.991 | > 5 µM
BPH-1 (prostate, adherent) | 0.822 | 3.32 µM
BT-20 (breast, adherent) | 0.969 | > 5 µM
BT-474 (breast, adherent) | 0.986 | > 5 µM
BT-483 (breast, adherent) | 0.957 | > 5 µM
BT-549 (breast, adherent) | 0.977 | > 5 µM
BV-173 (chronic myeloid leukaemia, suspension) | 0.952 | > 5 µM
Becker (glioma, adherent) | 0.92 | > 5 µM
BxPC-3 (pancreas, adherent) | 0.981 | > 5 µM
C2BBe1 (large intestine, adherent) | 0.985 | > 5 µM
C3A (liver, adherent) | 0.986 | > 5 µM
C32 (melanoma, adherent) | 0.98 | > 5 µM
C-4-I (cervix, adherent) | 0.924 | > 5 µM
C-33-A (cervix, adherent) | 0.966 | > 5 µM
CA46 (Burkitt lymphoma, suspension) | 0.985 | > 5 µM

Cell Line | AUC | IC50
CADO-ES1 (Ewing sarcoma, suspension) | 0.981 | > 5 µM
CAL-12T (non-small cell lung carcinoma, adherent) | 0.955 | > 5 µM
CAL-27 (head and neck, adherent) | 0.831 | 3.25 µM
CAL-29 (bladder, adherent) | 0.947 | > 5 µM
CAL-33 (head and neck, adherent) | 0.815 | 2.76 µM
CAL-39 (cervix, adherent) | 0.911 | > 5 µM
CAL-51 (breast, adherent) | 0.989 | > 5 µM
CAL-54 (kidney, adherent) | 0.985 | > 5 µM
CAL-62 (thyroid, adherent) | 0.986 | > 5 µM
CAL-72 (osteosarcoma, adherent) | 0.959 | > 5 µM
CAL-78 (chondrosarcoma, adherent) | 0.968 | > 5 µM
CAL-85-1 (breast, adherent) | 0.977 | > 5 µM
CAL-120 (breast, adherent) | 0.955 | > 5 µM
CAPAN-1 (pancreas, adherent) | 0.947 | > 5 µM
CAS-1 (glioma, adherent) | 0.976 | > 5 µM
CCF-STTG1 (glioma, adherent) | 0.978 | > 5 µM
CCK-81 (large intestine, adherent) | 0.863 | 3.93 µM
CCRF-CEM (lymphoblastic leukaemia, suspension) | 0.935 | > 5 µM
CESS (acute myeloid leukaemia, suspension) | 0.99 | > 5 µM
CFPAC-1 (pancreas, adherent) | 0.965 | > 5 µM
CGTH-W-1 (thyroid, adherent) | 0.914 | > 5 µM
CHL-1 (melanoma, adherent) | 0.945 | > 5 µM
CHP-126 (neuroblastoma, suspension) | 0.88 | > 5 µM
CHP-134 (neuroblastoma, suspension) | 0.961 | > 5 µM
CHP-212 (neuroblastoma, adherent) | 0.876 | 4.3 µM
CHSA0011 (chondrosarcoma, adherent) | 0.864 | > 5 µM

Cell Line | AUC | IC50
CHSA0108 (chondrosarcoma, adherent) | 0.963 | > 5 µM
CHSA8926 (chondrosarcoma, adherent) | 0.978 | > 5 µM
CL-11 (large intestine, adherent) | 0.954 | > 5 µM
CL-34 (large intestine, adherent) | 0.986 | > 5 µM
CL-40 (large intestine, adherent) | 0.971 | > 5 µM
CMK (acute myeloid leukaemia, suspension) | 0.989 | > 5 µM
CML-T1 (chronic myeloid leukaemia, suspension) | 0.984 | > 5 µM
COLO-205 (large intestine, suspension) | 0.97 | > 5 µM
COLO-320-HSR (large intestine, suspension) | 0.99 | > 5 µM
COLO-668 (small cell lung carcinoma, adherent) | 0.982 | > 5 µM
COLO-678 (large intestine, semi-adherent) | 0.984 | > 5 µM
COLO-679 (melanoma, adherent) | 0.981 | > 5 µM
COLO-680N (oesophagus, adherent) | 0.944 | > 5 µM
COLO-684 (endometrium, suspension) | 0.983 | > 5 µM
COLO-783 (melanoma, adherent) | 0.953 | > 5 µM
COLO-800 (melanoma, adherent) | 0.984 | > 5 µM
COLO-824 (breast, adherent) | 0.979 | > 5 µM
COR-L23 (large cell lung carcinoma, adherent) | 0.885 | > 5 µM
COR-L88 (small cell lung carcinoma, adherent) | 0.986 | > 5 µM
COR-L95 (small cell lung carcinoma, adherent) | 0.978 | > 5 µM
COR-L279 (small cell lung carcinoma, suspension) | 0.99 | > 5 µM
COR-L321 (lung, suspension) | 0.985 | > 5 µM
CP50-MEL-B (melanoma, adherent) | 0.948 | > 5 µM
CP66-MEL (melanoma, adherent) | 0.961 | > 5 µM
